In the assay the target is GST-ACTN1 (full-length human ACTN1 in pGEX-4T-1) (human, UniProt P12814 1-892). As to the kind of experiment: pull-down.
UniProt P12814, sequence (P12814 whole entry): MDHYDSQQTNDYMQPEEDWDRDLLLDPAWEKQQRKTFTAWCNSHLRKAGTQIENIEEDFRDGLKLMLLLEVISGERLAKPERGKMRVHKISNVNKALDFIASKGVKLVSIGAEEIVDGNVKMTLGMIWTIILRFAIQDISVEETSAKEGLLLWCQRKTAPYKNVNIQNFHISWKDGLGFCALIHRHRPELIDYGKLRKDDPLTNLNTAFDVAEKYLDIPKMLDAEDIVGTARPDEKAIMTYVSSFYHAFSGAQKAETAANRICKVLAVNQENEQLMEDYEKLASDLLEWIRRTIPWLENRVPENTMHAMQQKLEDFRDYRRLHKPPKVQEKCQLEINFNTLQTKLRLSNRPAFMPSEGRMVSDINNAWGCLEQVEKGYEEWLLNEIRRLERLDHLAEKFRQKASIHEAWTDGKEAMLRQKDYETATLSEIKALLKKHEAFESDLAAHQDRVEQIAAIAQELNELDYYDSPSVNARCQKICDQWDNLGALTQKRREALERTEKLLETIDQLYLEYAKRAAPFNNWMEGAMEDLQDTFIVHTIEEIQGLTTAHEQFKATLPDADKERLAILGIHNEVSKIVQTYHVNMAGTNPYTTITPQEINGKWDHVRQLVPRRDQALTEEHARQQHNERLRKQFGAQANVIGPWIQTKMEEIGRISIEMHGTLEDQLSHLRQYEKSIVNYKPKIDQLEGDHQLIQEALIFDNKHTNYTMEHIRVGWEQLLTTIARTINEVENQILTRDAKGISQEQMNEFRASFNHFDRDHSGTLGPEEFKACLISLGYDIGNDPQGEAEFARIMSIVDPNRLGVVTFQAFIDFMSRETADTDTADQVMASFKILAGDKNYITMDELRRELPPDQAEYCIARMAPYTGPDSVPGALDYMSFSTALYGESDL

B1: Human USP14 catalytic inactive mutant C114A bearing an N-terminal Flag tag, purified from E. coli (enzyme)
chain: not shown
Turning to B1, the binding result is “binds”.

The record behind these values is article PMC12647151 (Communications Biology, 2025).
